# No constants are given. Whether binding was seen depends on the method and setting. Binding seen in cells or lysates may run through a third protein. Some results given as binding are weak or reduced against the parent protein; the word gives no strength. Tags and fused reporters may be left off the sequences shown.
# Molecular target: FLAG-APP695 (from pcDNA3-FLAG-APP695) (UniProt P05067)
# Assay: co-IP; N2a cells co-transfected with pcDNA3-FLAG-APP695 and HA-X11, HA-X11L or HA-X11L2; lysates immunoprecipitated with anti-FLAG antibody; blot with anti-HA and anti-FLAG
row,binding,Binder
1,binds,"HA-X11 (from pcDNA3.1-HA-X11) (protein, UniProt Q02410 1-837) MNHLEGSAEVEVTDEAAGGEVNESVEADLEHPEVEEEQQQPPQQQHYVGRHQRGRALEDLRAQLGQEEEERGECLARSASTESGFHNHTDTAEGDVIAAARDGYDAERAQDPEDESAYAVQYRPEAEEYTEQAEAEHAEATHRRALPNHLHFHSLEHEEAMNAAYSGYVYTHRLFHRGEDEPYSEPYADYGGLQEHVYEEIGDAPELDARDGLRLYEQERDEAAAYRQEALGARLHHYDERSDGESDSPEKEAEFAPYPRMDSYEQEEDIDQIVAEVKQSMSSQSLDKAAEDMPEAEQDLERPPTPAGGRPDSPGLQAPAGQQRAVGPAGGGEAGQRYSKEKRDAISLAIKDIKEAIEEVKTRTIRSPYTPDEPKEPIWVMRQDISPTRDCDDQRPMDGDSPSPGSSSPLGAESSSTSLHPSDPVEASTNKESRKSLASFPTYVEVPGPCDPEDLIDGIIFAANYLGSTQLLSDKTPSKNVRMMQAQEAVSRIKMAQKLAKSRKKAPEGESQPMTEVDLFISTQRIKVLNADTQETMMDHPLRTISYIADIGNIVVLMARRRMPRSNSQENVEASHPSQDGKRQYKMICHVFESEDAQLIAQSIGQAFSVAYQEFLRANGINPEDLSQKEYSDLLNTQDMYNDDLIHFSKSENCKDVFIEKQKGEILGVVIVESGWGSILPTVIIANMMHGGPAEKSGKLNIGDQIMSINGTSLVGLPLSTCQSIIKGLKNQSRVKLNIVRCPPVTTVLIRRPDLRYQLGFSVQNGIICSLMRGGIAERGGVRVGHRIIEINGQSVVATPHEKIVHILSNAVGEIHMKTMPAAMYRLLTAQEQPVYI"
2,binds,"HA-X11L (from pcDNA3.1-HA-X11L) (protein, UniProt Q99767 1-749) MAHRKLESVGSGMLDHRVRPGPVPHSQEPESEDMELPLEGYVPEGLELAALRPESPAPEEQECHNHSPDGDSSSDYVNNTSEEEDYDEGLPEEEEGITYYIRYCPEDDSYLEGMDCNGEEYLAHSAHPVDTDECQEAVEEWTDSAGPHPHGHEAEGSQDYPDGQLPIPEDEPSVLEAHDQEEDGHYCASKEGYQDYYPEEANGNTGASPYRLRRGDGDLEDQEEDIDQIVAEIKMSLSMTSITSASEASPEHGPEPGPEDSVEACPPIKASCSPSRHEARPKSLNLLPEAKHPGDPQRGFKPKTRTPEERLKWPHEQVCNGLEQPRKQQRSDLNGPVDNNNIPETKKVASFPSFVAVPGPCEPEDLIDGIIFAANYLGSTQLLSERNPSKNIRMMQAQEAVSRVKRMQKAAKIKKKANSEGDAQTLTEVDLFISTQRIKVLNADTQETMMDHALRTISYIADIGNIVVLMARRRMPRSASQDCIETTPGAQEGKKQYKMICHVFESEDAQLIAQSIGQAFSVAYQEFLRANGINPEDLSQKEYSDIINTQEMYNDDLIHFSNSENCKELQLEKHKGEILGVVVVESGWGSILPTVILANMMNGGPAARSGKLSIGDQIMSINGTSLVGLPLATCQGIIKGLKNQTQVKLNIVSCPPVTTVLIKRPDLKYQLGFSVQNGIICSLMRGGIAERGGVRVGHRIIEINGQSVVATAHEKIVQALSNSVGEIHMKTMPAAMFRLLTGQETPLYI"
3,binds,"HA-X11L2 (from pcDNA3.1-HA-X11L2) (protein, UniProt O96018 1-575) MDFPTISRSPSGPPAMDLEGPRDILVPSEDLTPDSQWDPMPGGPGSLSRMELDESSLQELVQQFEALPGDLVGPSPGGAPCPLHIATGHGLASQEIADAHGLLSAEAGRDDLLGLLHCEECPPSQTGPEEPLEPAPRLLQPPEDPDEDSDSPEWVEGASAEQEGSRSSSSSPEPWLETVPLVTPEEPPAGAQSPETLASYPAPQEVPGPCDHEDLLDGVIFGARYLGSTQLVSERNPPTSTRMAQAREAMDRVKAPDGETQPMTEVDLFVSTKRIKVLTADSQEAMMDHALHTISYTADIGCVLVLMARRRLARRPAPQDHGRRLYKMLCHVFYAEDAQLIAQAIGQAFAAAYSQFLRESGIDPSQVGVHPSPGACHLHNGDLDHFSNSDNCREVHLEKRRGEGLGVALVESGWGSLLPTAVIANLLHGGPAERSGALSIGDRLTAINGTSLVGLPLAACQAAVRETKSQTSVTLSIVHCPPVTTAIIHRPHAREQLGFCVEDGIICSLLRGGIAERGGIRVGHRIIEINGQSVVATPHARIIELLTEAYGEVHIKTMPAATYRLLTGQEQPVYL"

# From publication PMC3139598
